The source gives no read counts; variants with many changes may rest on few reads.
B1: OR4K15 (parent)
chain: GUUAACGGUCAUAGGCCAUGGAAACUAGGAGCACCAUUUCGCUGCCAGUGAAGAAAUGAACAAAGAAAAUCUGGGCCAGGCAGGCAUCAAAAGAAAUAGUCUUGCGCUCAACCAGAAAGUCUGUAAUCAUUUUAAGGGUA

Variants of: B1
Test: self-cleavage, relative activity (ratio to wild type); higher = more cleavage; in vitro, sequencing; the parent is a self-cleaving ribozyme

Variant	self-cleavage
GUUAACAGCCACAGGCCAUGGAGACUAGGAGCACCAUUUCGCUGCCAGUGAAGAAAUGAACAAGGAAAAUCUGGGCCUGGCAGGCAUCAAAAGAAAUAGUCUUGCGCUCAACCAGUAAGUCUGUAAUCAUUUUAAGGGUA [G7A U9C U12C A23G A64G A78U A116U]	0.09
GUUAACGGUCAUAGGCCAUGGAAGCUAGGAGCGCCAUUUCGCUGCCAGUGACGAAAUGAACAAAGAAAGUCUGGGCCAGGCAGGCAUCAAAAGAAAUAGUCUUGCGCUCAACCAGAGAGUCUGUAAUCAUUUUAAGGGUA [A24G A33G A52C A69G A117G]	0.48
GUUAACGGUCAUAGGCCAUGGAAACUAGGAGCACCAUUUCGCUGCCAGUGAAGAAAUGAACAAAGAAGAUCUGGGCCUGGCAGGCAUCAAAGGAAAUAGCCUUGCGCUCAACCAGAAAGUCUGUAAUCAUUUUAAGGGUA [A68G A78U A92G U100C]	0.91
GUUAACGGUCAUAGGCCAUGGGAACUAGGAGCACCAUUUCGCUGCCAGGGAAGAAAUGAACAAAGAAAAUCUGGGCCAGGCAGGCAUCAAAGGAAAUAGUCUUGCGCUCAACCAGAAGGUCUGUAAUCAUUUUAAGGGUA [A22G U49G A92G A118G]	1.45
GUUAACGGUCAUAGGCCAUGGAAACUAGGAGCACCAUUUCGCUGCCAGUGGAGAAAUGAGCAAAGAAAAUCUGGGCCAGGCAGGCAUCAAAAGAAAUAGUCUUGCGCUCAACCGGAAAGUCUGUAAUCAUUUUAAGGGUA [A51G A60G A114G]	0.59
GUUAACGGUCACAGGCCAUGGAAACUAGGAGCACCAUUUCGCUGCCAGUGAAGAAGUGAACAAAGAGAAUCUGGGCCAGGCAGGCAUCAAAAGAAACGGUCUUGCGCUCCACCAGAAAGUCUGUAAUCAUUUUAAGGGUA [U12C A56G A67G U97C A98G A110C]	0.14
GUUAACGGUCAUAGGCCAUGGAAACUAGGAGCACCAUCUCGCUGCCAGUGAAGAAAUGAGCAAAGAAAACCUGGGCCAGGCAGGCAUCAAAAGAAAUAGUCUUGCGCUCAACCAGAAAGUCUGUGAUCAUUUUAAGGGUA [U38C A60G U70C A125G]	0.34
GUUAACGGUCAUAGGCCAUGGAAACUAGGAGCACCAUUUCGCCGCCAGUGAAGGUAUGAACAAAGAAAAUCUGGGCCUGGCAGGCAUCAAAAGAAAUAGUCUUGCGCCCAACCAGAUAGUCUGUAGUCAUUUUAAGGGUA [U43C A54G A55U A78U U108C A117U A126G]	0
GUUAACGGUCAUAGGCCAUGGAAACUAGGAGCACCAUUUCGCUGCCAGUGAAGAAAUGAACAAAGAUAAUCUGGGCCAGGCAGGCAUCAAAAGAAAUAGUCUGGCGCUCAACCAGAGAGUCUGUAAUCAUUUUAAGGGUA [A67U U103G A117G]	0.04
GUUAGCGGUCAUAGGCCAUGGAAACUAGGAGCACCAUUUCGCUGCCAGUGAAGAAACGAACAAAGAAAAUCUGGGCCAGGCAGGCAUCAAAAGAAAUAGUCUUGCGCUCAACCAGGAAGUCUGUAAUCAUUUUAAGGGUA [A5G U57C A116G]	0.33
GUUAACGGUCAUAGGCCAUGGAAACUAGGAGCACCAUUUCGCUGCCAGUGAAGAAGUGAACAAAGAAAAUCGGGGCCAGGCAGGCAUCAUAAGAAAUGGUCUUGCGCUCAACCAGAAAGUCUGUAAUCAUUUUAAGGGUA [A56G U72G A90U A98G]	0.15
GUUAACGGUCUUAGGCCAUGGAAACUAGGAGCACCAUUUCGCUGCCAGUGAAGGAAUGAACAAAGAAAAUCUGGGCCAGGCAGGCAUCUAAAGAAAUAGUCUUGCGCUCAACCAGAAAGUCUGUAAUCAUUUUAAGGGUA [A11U A54G A89U]	1.6
GUUAACGGUCAUAGGCCAUGGAAACUAGGAGCACCAUUUCGCUGCCAGUGAAGAAAUGAGCAAAGAAAAUCUGGGCCAGGCAGGCAUCAAAGGAAAUAGUCUUGCGCUCAACCAGAAAGUCUGUAAUCCUUUUAAGGGUA [A60G A92G A129C]	1.15
GUUAACGGUCGUAGGCCAUGGAAACUAGGAGCACCAUUUCGCUGCCAGUGAAGAAAUGAACAGAGAAAAUCUGGGCCAGGCAGGCAUCAAAAGAAAUAGUCUUGCGCUCAACCAGAAAGUCUGUAAUCACUUUAAGGGUA [A11G A63G U130C]	1.57
GUUAACGGUCAUAGGCCAUGGAAACUAGGAGCACCAUUUCGCUGCCAGUGAAGAAAUGAACAAAGAAAAUCUGGGCCAGGCAGGCAUCAAAAGAAACAGUCUUGCGCUCAACCAGAAAGUCUGUAACCAUUUUAUGGGUA [U97C U127C A135U]	0.26
GUUAACGGUCAUAGGCCAUGGAAACUAGGGGCACCAUUUCGCUGCCAGUUAAGAAAUGAACAAAGAAAAUCUGGGCCAGGCAGGCAUCAAAAGAAAUAGUCUUGCGCUCAACCUGAAAGUCUGUAAUCAUUUUAAGGGUA [A30G G50U A114U]	0.11
GUUAACGGUCAUAGGCCAUGGAAACUAGGUGCACCAUUUCGCUGCCAGUGAAGAAAUGAACAAAGAAAAUCUGGGCCAGGCAGGCAUCAAAAGAAAUAGUCUUGCGCCCAACCAGAAGGUCUGUAAUCAUUUUAAGGGUA [A30U U108C A118G]	0.01
GUUAACGGUCAUAGGCCAUGGAAACUAGGAGCACCAUCUCGCUGCCAGUGAAGAAAUGAACAAAGAAAAUCUGGGCCAAGCAGGCAUCAAAAGAAAUAGUCUUGCGCUCAACCAGAAUGUCUGUAAUCUUUUUAAGGGUA [U38C G79A A118U A129U]	0.09
GUUAACGGUCAUAGGCCAUGGAAACUAGGAGCACCAUUUCGCUGCCAGUGAAGAAAUGGACAAUGAAAAUCUGGGCCGGGCAGGCAUCAAAAGAAAUAGUCUUGCGCUCAACCAGAAAGUCUGUAAUCAUUUUAAGGGUA [A59G A64U A78G]	0.64
GUUAACGGUCAUAGGCCAUGGAAACUAGGAGCACCAUUUCGCUGCCAGUGAAGAAAUUAACAGAGAAAAUCUGGGCCAGGCAGGCAUCAAAAGAAAUAGUCUUGCGCUCAACCAGAAUGUCUGUAAUCAUUUUAAGGGUA [G58U A63G A118U]	0.37
GUUAACGGUCAUAGGCCAUGGAGACUAGGAGCACCAUUUCGCUGCCAGUGAAGAGAUGAGCAAAGAAAAUCUGGGCCAGGCAGGCACCAAAAGAAAUAGUCUUGCGCUCAACCAGAAAGUCUGUAAUCAUUUUAAGGGUA [A23G A55G A60G U87C]	0.96

Variant	self-cleavage
GUUAACGGUCAUAGGCCAUGGAAACUAGGAGCACCAUUUCGCUGCCAGUGAGGAAAUGAACAAAGAAGACCUGGGCCAGGCAGGCAUCAAAAGAAAUAGUCUUGCGCUCGACCAGGAAGUCUGUAAUCAUUUUAAGGGUA [A52G A68G U70C A110G A116G]	0.13
GUUAACGGUCAUAGGCCAUGGAAACUAGGAGCACCAUUUCGCUGCCAGUGAAGAAAUGAACAAAGAAAAUCUGGGCCGGGCAGGCAUCAAAAGAAAUAGUCUUGCGCUCAACCAGGAAGUCUGAAAUCAUUUUAAGGGUA [A78G A116G U124A]	0.04
GUUAACGGUCAUAGGCCAUGGGAACUAGGAGCACCAUUUCGCUGCCAGUGAAGAAAUGAGCAAAGAAAAUCUGGGCCAGGCAGGCAUCAGAAGAAAUAGUCUUGCGCUCAACCAGAAAGUCUGUAAUCAUUUUAAGGGUA [A22G A60G A90G]	0.43
GUUAACGGUCAUAGGCCAUGGAAACUAGGAGCACCAUUUCGCUGCCAGUGAAGGAAUGAACAAAGAAAAUCUGGGCCAGGCAGGCAUCAAAAGAAAUAGUCUUGCGCUCAACCAGAGAGUCUGUAAUCACUUUAAGGGUA [A54G A117G U130C]	0.94
GUUAACGGUCAUAGGCCAUGGGAACUAGGAGCGCCAUUCCGCUGCCAGUGAAGAAAUGAACAAAGAAAAUCUGGGCCGGGCAGGCAUCAAAAGAAAUAGUCUUGCGCUCAACCAGAAAGUCUGUAAUCAUUUUAAGGGUA [A22G A33G U39C A78G]	0.26
GUUAACGGUCAUAGGCCAUGGAAACUAGGAGCACCAUCUCGCUGCCAGUGAAGGAAUGAACAAAGAAAAUCUGGGCCAGGCGGGCAUCAAAAGAAAUAGUCUUGCGCUCAACCAGAAAGUCUGUAAUCAUUUUAAGGGUA [U38C A54G A82G]	0.28
GUUAACGGUCAUAGGCCAUGGAAACUAGGAGCACCAUUUCGCUGCCAGUGAAGAAAUGAACAAAGAAAAUCUGGGCCGGGCAGGCAUCAAAAGAAAUAGUCUUGCGCCCAACCAGAGAGUCUGUAAUCAUCUUAAGGGUA [A78G U108C A117G U131C]	0.01
GUUAACGGUCAUAGGCCAUGGAAACUGGGUGCACCAUUUUGCUGCCAGUGAAGAAAUGAACAAAGAAAAUCUGGGCCAGGCAGGCAUCAGAAGAAAUAGUCUUGCGCUCAACCAGAAAGUCUGUAAUCAUUUUAAGGGUA [A27G A30U C40U A90G]	0.64
GUUAACGGUCAUAGGCCAUGGAAACUAGGAGCACCAUUUCGCUGCCAGAGAAGAAAUGAACAAAGAAAAUCGGGGCCAGGCAGGCAUCAAUAGAAAUAGUCUUGCGCUCAACCAGAAAGUCUGUAAUCAUUUUAAGGGUA [U49A U72G A91U]	0.33
GUUAACGGUCAUAGGCUAUGGAAACUAGGAGCACCAUUUCGCUGCCAGUGAAGAAAUGAACAAAGAAAAUCUGGGCCAGACAGGCAUCAAAAGAAAUAGUCUUGCGCUCAACCAGAAAGCCUGUAAUCAUUUUAAGGGUA [C17U G80A U120C]	0.16
GUUAACGGUCAUAGGCCUUGGAAACUAGGAGCGCCAUUUCGCUGCCAGUGAAGAAAUGAUCAAAGAAAAUCUGGGCCAGGCAGGCAUCAAAAGAAAUAGUCUUGCGCUCAACCAGAAAGUCUGUAAUCAUUUUAAGGGUA [A18U A33G A60U]	1.13
GUUAACGGUCAUAGGCCAUGGAAACUAGGAGCACCAUUUCGCUGGCAGUGAAGCAAUGAGCAAAGAAAAUCUGGGCCAGGCAGGCAUCAAAAGAAAUAGUCUUGCGCUCAACCAGAAAGUCUGUAAUCAUUUUAAGGGUA [C45G A54C A60G]	1.07
GUUAGCGGUCAUAGGCCAUGGAAACUAGGAGCACCAUUUCGCUGCCAGUGAGGAAACGAACAAAGAGAAUCUGGGCCAGGCAGGCAUCAAAAGAAAUAGUCUUGCGCUCAACCAGAAAGUCUGUAAUCAUUUUAAGGGUA [A5G A52G U57C A67G]	1.31
GUUAACGGUCAUAGGCCAUGGAAACUAGGAGCACCAUUUCGCUGCCAGUGAAGAAAUGAACAAAGAAGAUCUGGGCCAGGCAGGCACCAAAAGAAAUAGUCUUGCGCUCAACCAGAAAGUCUGUAAUCAAUUUAAGGGUA [A68G U87C U130A]	0.19
GUUAACGGUCAUAGGCCAUGGAAACUAGGAGCACCAUUUCGCUGCCAGUGAAGGAAUGAACAAAGAAAAUCUGGGCCAGGCAGGCAUCAAAAGAAAUAGUCUUGCGCUCAACCAGGAAGUCUGUAAUCCUUUUAAGGGUU [A54G A116G A129C A140U]	0.29
GUAAACGGUCAUAGGCCAUGGAAACUAGGAGCACCAUUUCGCCGCCAGUGAAGAAAUGAACAAAGAAGAUCUGGGCCAGGCAGGCAUCAAAAGAAAUAGUCUUGCGCUCAACCAGAAAGUCUGUAAUCAUUUUAAGGGUA [U3A U43C A68G]	1.06
GUUAACGGUCAUAGGCCAUGGAAACUAGGAGCACCAUUUCGCUGCCAGUGAUGAAAUGAACGAAGAAAAUCUGGGCCAGGCAGGCAUCGAAAGAAAUAGUCUUGCGCUCAACCAGAAAGUCUGUAAUCAUUUUAAGGGUG [A52U A62G A89G A140G]	0.33
GUUAACGGUCAUAGGCUAUGGAAACUAGGAGCACCAGUUCGCUGCCAGUGAAGAAAUGAACAAAGAAAAUCUGGGCCAGGCAGGCACCAAAAGAAAUAGUCUUGCGCUCAACCAGAAAGUCUGUAAUCAUUUUAAGGGUA [C17U U37G U87C]	0.24
GUUAACGGUCAUAGGCCAUGGAGACUAGGAGCACCAUUUCGCUGCCAGUGAAGAAAUGAACAAAGAAAAACUGGGCCAGGCAGGCGUCAAUAGAAAUAGUCUUGCGCUCAACCAGAAAGUCUGUAAUCAUUUUAAGGGUA [A23G U70A A86G A91U]	1.11
GUUAACGGUCAUAGGCCAUGAAAACUAGGAGCUCCAUUUCGCUGCCAGUGGAGAAAUGAACAAAGAAAAACUGGGCCAGGCAGGCAUCAAAAGAAAUAGUCUUGCGCUCAACCAGAAAGUCUGUAAUCAUUUUAAGGGUA [G21A A33U A51G U70A]	1.08
